These results are taken from PMC4242493.

The other results are listed elsewhere or left out. The list includes weakly bound sequences.

For the assay, the target named is MaxL homodimer (UniProt P61244). Description: universal protein-binding microarray (PBM). Particulars: PBS-based mixture, 10 nM His-tagged protein dimer, 2% milk, 200 ng/uL BSA, 50 ng/uL salmon testes DNA, 0.02% TX-100; detection with Alexa 488 anti-His …; high values mean tight binding; most listed sequences are background and not binding sites; double strand, one strand shown.
Sequence of UniProt P61244 (P61244 whole entry): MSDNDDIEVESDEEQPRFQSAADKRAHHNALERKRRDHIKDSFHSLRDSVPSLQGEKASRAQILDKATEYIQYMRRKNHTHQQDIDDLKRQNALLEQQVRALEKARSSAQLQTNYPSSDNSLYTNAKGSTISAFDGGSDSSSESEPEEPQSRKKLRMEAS
GAGTCAAA: the binding signal (normalized occupancy) turned out to be 0.0783. Take CGGCAGCA: the binding signal (normalized occupancy) came out at 0.0759. Consider CATTGCTC, for which the binding signal (normalized occupancy) turned out to be 0.0698. In the case of ATACGTCA, the binding signal (normalized occupancy) stood at 0.0792.

In the case of CACGGCAG, the binding signal (normalized occupancy) was determined as 0.077. Consider CCTAGTCG, for which the binding signal (normalized occupancy) was determined as 0.0709.

Consider ACGTCTTA, for which the binding signal (normalized occupancy) was found to be 0.0796.

In the case of AGTTGGAC, the binding signal (normalized occupancy) came out at 0.0711. As for AATCACGT, the figure is 0.099; as for CATCCCGC, 0.0771. As for GGTTGCCA, the binding signal (normalized occupancy) was determined as 0.0746. On to GCCGGGTA, for which the binding signal (normalized occupancy) was 0.0681. On to CCAGTAAG, for which the binding signal (normalized occupancy) stood at 0.0736. On to GAGTGGGA, for which the binding signal (normalized occupancy) stood at 0.0757. For CCGACACG, the binding signal (normalized occupancy) was determined as 0.0818.

Take CCCTGAAG: the binding signal (normalized occupancy) is 0.069. In the case of GTGGACAA, the binding signal (normalized occupancy) worked out at 0.0784.

Turning to CAATCTTC, the binding signal (normalized occupancy) amounted to 0.0707. As for GCGTGTAC, the binding signal (normalized occupancy) is 0.1. As to AAGGCGGG, the binding signal (normalized occupancy) came to 0.0744. As for CCTAGATC, the binding signal (normalized occupancy) stood at 0.0788.

Turning to AAGCAGCA, the binding signal (normalized occupancy) amounted to 0.0684.

On to GTACGACA, for which the binding signal (normalized occupancy) was 0.0784. On to CCACGTGA, for which the binding signal (normalized occupancy) was 0.482. On to CGGCCAAC, for which the binding signal (normalized occupancy) was 0.0719. Consider GGCATCCA, for which the binding signal (normalized occupancy) was 0.0782. As for CGTCAATC, the figure is 0.0788; as for AATTGACG, 0.072. As for TCCCTGCA, the figure is 0.078; as for ATATGTGG, 0.0866.

Regarding GAGCAAGC, the binding signal (normalized occupancy) came out at 0.0695. Next, CCGTTCTA: 0.0701; CCCCATCC: 0.0846; ACGATTGA: 0.0852. Take GAAGTGCC: the binding signal (normalized occupancy) turned out to be 0.0689.

As for AGGTTAAT, the binding signal (normalized occupancy) amounted to 0.0754. For the sequence AGAATCCG, the binding signal (normalized occupancy) turned out to be 0.0701. CGACGTAG: the binding signal (normalized occupancy) was 0.0755. In the case of AAGTGTCG, the binding signal (normalized occupancy) stood at 0.0698. Consider CCGTCGTC, for which the binding signal (normalized occupancy) worked out at 0.0708. Regarding AACTGTCA, the binding signal (normalized occupancy) is 0.0789. Take AGCTATGG: the binding signal (normalized occupancy) stood at 0.0735. Take TACAGCTA: the binding signal (normalized occupancy) turned out to be 0.0769.

As to ATTCTGCG, the binding signal (normalized occupancy) was 0.0748. Regarding AACTTTTA, the binding signal (normalized occupancy) was 0.0756. On to CATAAGTA, for which the binding signal (normalized occupancy) was 0.0794. Take CAGAATGG: the binding signal (normalized occupancy) came out at 0.0752. Next, ATATGGAT: 0.0898. Consider GCTAAGAA, for which the binding signal (normalized occupancy) is 0.0741. Next, AACTTTGA: 0.0709; CCGATAAG: 0.0715. Regarding CTGTGGAA, the binding signal (normalized occupancy) was found to be 0.072. Take CCAGGGAC: the binding signal (normalized occupancy) is 0.0698. ACTGTAAC: the binding signal (normalized occupancy) was 0.0739. With AACGGCTG, the binding signal (normalized occupancy) worked out at 0.0682.

Consider AAGTTTAT, for which the binding signal (normalized occupancy) is 0.0751. Regarding AAGACTCG, the binding signal (normalized occupancy) is 0.0694.

As to AGGCAGCA, the binding signal (normalized occupancy) worked out at 0.0781. For ACAAAAAT, the binding signal (normalized occupancy) amounted to 0.076. As for TCCCCCAA, the figure is 0.0756; as for GGACCGTA, 0.0673; as for AGATAGTC, 0.0791. Take AGTAGAAT: the binding signal (normalized occupancy) worked out at 0.0835.

For ACCCAATG, the binding signal (normalized occupancy) was found to be 0.0792.

For the sequence CATTCTAA, the binding signal (normalized occupancy) was 0.0721. Turning to GGCGGACC, the binding signal (normalized occupancy) stood at 0.0677.

Consider GCCTACCA, for which the binding signal (normalized occupancy) was 0.0757. Turning to AACCTGAA, the binding signal (normalized occupancy) is 0.0749. AAGATGGC: the binding signal (normalized occupancy) is 0.0717. As for AAGAACGG, the binding signal (normalized occupancy) came to 0.0687. On to AGAGTTAT, for which the binding signal (normalized occupancy) came to 0.0773. Consider TCGCCCGA, for which the binding signal (normalized occupancy) was 0.0722.

On to ACCCAACA, for which the binding signal (normalized occupancy) was found to be 0.0771.

On to CGAAAGAA, for which the binding signal (normalized occupancy) was 0.0716.

In the case of CAAGTTAC, the binding signal (normalized occupancy) was 0.0732. For CATATGGC, the binding signal (normalized occupancy) was 0.0994.

In the case of ATTCCGAA, the binding signal (normalized occupancy) worked out at 0.0735. In the case of GATGTGGC, the binding signal (normalized occupancy) came out at 0.0839. Turning to CGACGCCG, the binding signal (normalized occupancy) stood at 0.071.

As for CGAGTATA, the binding signal (normalized occupancy) came out at 0.079. For the sequence GGCGCGCC, the binding signal (normalized occupancy) amounted to 0.0668. As for GAGTGAAC, the figure is 0.0708; as for CGACTTGA, 0.0698. ACAGAATA: the binding signal (normalized occupancy) turned out to be 0.0789. For the sequence AATGATGG, the binding signal (normalized occupancy) is 0.0844. With ATATCCAA, the binding signal (normalized occupancy) stood at 0.0793. In the case of ACTCACCC, the binding signal (normalized occupancy) stood at 0.0796.

For AGAGTGCG, the binding signal (normalized occupancy) stood at 0.0758. Next, GACTTAAC: 0.0746; ATCCGGGA: 0.0686. As for AAAGTGAC, the binding signal (normalized occupancy) stood at 0.0689. Take TCCACAAA: the binding signal (normalized occupancy) turned out to be 0.0726.

Take AGTGTTAT: the binding signal (normalized occupancy) is 0.0819.

For GAGGAGAC, the binding signal (normalized occupancy) came to 0.0713.
